{"source": "paper PMC4336329", "about": "(PLoS ONE, 2015)", "note": "Out of some 310,000 compounds screened, about 2,200 (0.71%) showed an effect of 50% or more. Effects have a minus sign here. Some of the results follow."}
{"molecular_target": "human ether-à-go-go-related gene (hERG) potassium channel (human, UniProt Q12809)", "sequence (Q12809 whole entry, looked up)": "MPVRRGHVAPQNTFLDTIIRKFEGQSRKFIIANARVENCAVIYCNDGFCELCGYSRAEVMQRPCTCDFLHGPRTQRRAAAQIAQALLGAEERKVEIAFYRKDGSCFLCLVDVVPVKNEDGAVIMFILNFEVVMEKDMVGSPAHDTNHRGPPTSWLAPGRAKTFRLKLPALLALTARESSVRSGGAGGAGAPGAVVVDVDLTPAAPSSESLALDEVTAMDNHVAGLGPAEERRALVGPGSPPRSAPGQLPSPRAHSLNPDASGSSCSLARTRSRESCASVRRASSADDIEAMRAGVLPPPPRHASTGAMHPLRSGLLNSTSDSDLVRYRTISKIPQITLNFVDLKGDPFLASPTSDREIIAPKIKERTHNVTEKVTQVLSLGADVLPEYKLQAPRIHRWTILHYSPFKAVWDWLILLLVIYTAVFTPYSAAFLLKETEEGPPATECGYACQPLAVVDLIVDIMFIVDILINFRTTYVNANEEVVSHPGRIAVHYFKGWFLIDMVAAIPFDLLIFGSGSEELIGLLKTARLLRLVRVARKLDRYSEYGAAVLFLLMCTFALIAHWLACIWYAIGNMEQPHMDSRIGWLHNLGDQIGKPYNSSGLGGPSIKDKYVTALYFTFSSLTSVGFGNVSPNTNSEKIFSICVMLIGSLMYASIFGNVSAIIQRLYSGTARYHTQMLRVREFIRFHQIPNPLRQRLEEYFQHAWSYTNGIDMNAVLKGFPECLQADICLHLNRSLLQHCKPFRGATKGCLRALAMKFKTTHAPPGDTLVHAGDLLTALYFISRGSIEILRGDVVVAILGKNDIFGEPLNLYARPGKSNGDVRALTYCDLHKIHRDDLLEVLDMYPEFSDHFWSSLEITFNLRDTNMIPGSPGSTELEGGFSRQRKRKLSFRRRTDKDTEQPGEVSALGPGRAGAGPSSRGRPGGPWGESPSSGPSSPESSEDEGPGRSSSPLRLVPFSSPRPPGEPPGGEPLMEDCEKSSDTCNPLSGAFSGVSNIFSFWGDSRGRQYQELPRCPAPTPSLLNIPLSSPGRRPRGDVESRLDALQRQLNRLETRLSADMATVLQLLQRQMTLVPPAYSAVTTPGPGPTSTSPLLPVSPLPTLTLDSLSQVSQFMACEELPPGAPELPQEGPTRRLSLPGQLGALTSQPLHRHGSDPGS", "test": "primary screen, population patch clamp on CHO cells stably expressing hERG", "units": {"hERG current change (%, negative = inhibition) at 1uM": "%"}}
{"compound": "COC(=O)c1cc(Sc2cccc(Cl)c2Cl)ccn1", "hERG current change (%, negative = inhibition) at 1uM": -5.02}
{"compound": "Cc1ccc(S(=O)(=O)N(CC(=O)N/N=C/c2ccco2)c2cc(Cl)cc(Cl)c2)cc1", "hERG current change (%, negative = inhibition) at 1uM": -0.0047}
{"compound": "CCCc1nc(SCC(=O)NCc2ccco2)c2c(=O)n(C)c(=O)n(C)c2n1", "hERG current change (%, negative = inhibition) at 1uM": 15.1}
{"compound": "Cn1nc(-c2ccc3c(c2)OCCO3)c2ccccc2c1=O", "hERG current change (%, negative = inhibition) at 1uM": 10}
{"compound": "COC(=O)c1[nH]c2ccccc2c1NC(=O)CN1CCC(C(N)=O)(N2CCCCC2)CC1", "hERG current change (%, negative = inhibition) at 1uM": -3.13}
{"compound": "CCOC(=O)Cc1cc(=O)n2[nH]c(C)c(-c3ccccc3OC)c2n1", "hERG current change (%, negative = inhibition) at 1uM": 7.37}
{"compound": "O=[N+]([O-])c1cccnc1NCCc1c[nH]c2ccccc12", "hERG current change (%, negative = inhibition) at 1uM": 10}
{"compound": "CCn1c(=O)n(CC)c2cc(S(N)(=O)=O)c(C)cc21", "hERG current change (%, negative = inhibition) at 1uM": 13.4}
{"compound": "O=c1[nH]c2cc3c(cc2cc1CN(Cc1ccco1)C(=S)NCCCN1CCOCC1)OCCO3", "hERG current change (%, negative = inhibition) at 1uM": 15}
{"compound": "O=C1OC(C(=O)NCc2ccccc2)Cc2ccccc21", "note": "(centres unmarked)", "hERG current change (%, negative = inhibition) at 1uM": 8.68}
{"compound": "Cc1ncc(CNC(=O)N(CCCl)N=O)c(N)n1.Cl", "hERG current change (%, negative = inhibition) at 1uM": 8.14}
{"compound": "CC1(C)NC(=O)N(CC(O)COc2cccc(F)c2)C1=O", "note": "(centres unmarked)", "hERG current change (%, negative = inhibition) at 1uM": 5.39}
{"compound": "COc1ccc(OC)c(C2=NOC(C(=O)N3CCC4(CC3)OCCO4)C2)c1", "note": "(centres unmarked)", "hERG current change (%, negative = inhibition) at 1uM": 7.59}
{"compound": "CCOC(=O)c1ccc(NC(=O)Cn2cccc2)cc1", "hERG current change (%, negative = inhibition) at 1uM": -2.65}
{"compound": "COc1ccc(NC(=S)NCCc2c[nH]c3ccc(OC)cc23)c(OC)c1", "hERG current change (%, negative = inhibition) at 1uM": 11.5}
{"compound": "COc1ccc(Cl)cc1N(CC(=O)Nc1ccccc1C(=O)N1CCCC1)S(C)(=O)=O", "hERG current change (%, negative = inhibition) at 1uM": 9.56}
{"compound": "COc1ccccc1NC(=O)Nc1cccnc1", "hERG current change (%, negative = inhibition) at 1uM": 7}
{"compound": "O=C(c1ccccc1)c1sc(N2CCOCC2)nc1-c1ccccc1", "hERG current change (%, negative = inhibition) at 1uM": -7.74}
{"compound": "COC(=O)Cn1cnc2c(cnn2-c2ccccc2)c1=O", "hERG current change (%, negative = inhibition) at 1uM": 11.3}
{"compound": "COc1ccc(/C=C(/NC(=O)c2ccccc2)C(=O)NCc2ccncc2)cc1", "hERG current change (%, negative = inhibition) at 1uM": -12.6}
{"compound": "Cc1[nH]nc2c1C(c1cccs1)C1=C(CC(C)(C)CC1=O)N2", "note": "(centres unmarked)", "hERG current change (%, negative = inhibition) at 1uM": 7.15}
{"compound": "Cc1ccc(S(=O)(=O)N2CCCCC2C(=O)NCc2ccco2)cc1", "note": "(centres unmarked)", "hERG current change (%, negative = inhibition) at 1uM": 5.24}
{"compound": "Cc1cnc(CNC(=O)c2ccc3oc(C(C)C)nc3c2)[nH]1", "hERG current change (%, negative = inhibition) at 1uM": 2.8}
{"compound": "O=C(c1ccccn1)N1CCN(S(=O)(=O)c2ccc(F)cc2)CC1", "hERG current change (%, negative = inhibition) at 1uM": 3.93}
{"compound": "Cc1nc(NC(=O)c2ccc(-c3cc4ccccc4oc3=O)cc2)ccc1Br", "hERG current change (%, negative = inhibition) at 1uM": 17.3}
{"compound": "COc1cc(CN2CCNC(=O)C2CC(=O)N(C)Cc2ncc[nH]2)cc(OC)c1", "note": "(centres unmarked)", "hERG current change (%, negative = inhibition) at 1uM": 12.8}
{"compound": "CCNC(=S)/N=C(\\N)Nc1nc(C)c2cc(C)ccc2n1", "hERG current change (%, negative = inhibition) at 1uM": 6.88}
{"compound": "Cc1ccc(C)c(C(=O)COC(=O)Cn2[nH]c(=O)c3ccccc3c2=O)c1", "hERG current change (%, negative = inhibition) at 1uM": 9.74}
{"compound": "COc1ccccc1C(=O)Nc1onc(C)c1C#N", "hERG current change (%, negative = inhibition) at 1uM": 1.84}
{"compound": "CNCC(=O)O", "hERG current change (%, negative = inhibition) at 1uM": 7.06}
{"compound": "COc1ccc(NC(=O)c2sc(Cl)nc2-c2ccccc2)cc1", "hERG current change (%, negative = inhibition) at 1uM": 9.86}
{"compound": "Cc1ccc(NC(=O)/C(=C/c2ccc([N+](=O)[O-])cc2)NC(=O)c2ccccc2)cc1", "hERG current change (%, negative = inhibition) at 1uM": 2.69}
{"compound": "CCOc1ccc(CCNC(=O)COC(=O)c2cccc(OC)c2O)cc1OCC", "hERG current change (%, negative = inhibition) at 1uM": 13.7}
{"compound": "C/C=C/Cn1c(N(C)Cc2ccccc2)nc2c1c(=O)[nH]c(=O)n2C", "hERG current change (%, negative = inhibition) at 1uM": 1.79}
{"compound": "CN1CCN(C(=O)c2ccc3c(c2)N(Cc2ccc(F)cc2)C(=O)c2ccccc2S3=O)CC1", "note": "(centres unmarked)", "hERG current change (%, negative = inhibition) at 1uM": 18.2}
{"compound": "O=C(O)CN(c1ccccn1)S(=O)(=O)c1ccc(Cl)cc1", "hERG current change (%, negative = inhibition) at 1uM": 12.5}
{"compound": "CCCc1cc(=O)n2[nH]c(-c3cc(OC)c(OC)c(OC)c3)nc2n1", "hERG current change (%, negative = inhibition) at 1uM": 11.3}
{"compound": "CCCCCOC(=O)C1=C(C)Nc2nnnn2C1c1ccccc1Cl", "note": "(centres unmarked)", "hERG current change (%, negative = inhibition) at 1uM": 12.2}
{"compound": "N#CC(c1ccc(Cl)nn1)c1ccc(Cl)cc1Cl", "note": "(centres unmarked)", "hERG current change (%, negative = inhibition) at 1uM": 8.39}
{"compound": "CCCC(=O)Nc1nc2c(OC)ccc(OC)c2s1", "hERG current change (%, negative = inhibition) at 1uM": 3.46}
{"compound": "O=C(NCCc1ccccc1F)/C(=C/c1cccnc1)NC(=O)c1ccccc1", "hERG current change (%, negative = inhibition) at 1uM": -3.24}
{"compound": "N#Cc1ccc(NC(=O)COC(=O)CCc2ccc(S(=O)(=O)N3CCCCC3)cc2)cc1", "hERG current change (%, negative = inhibition) at 1uM": 11.8}
{"compound": "O=C1CCN(C(=S)NCc2ccccc2)CC1", "hERG current change (%, negative = inhibition) at 1uM": 16.4}
{"compound": "O=S(=O)(NNc1ccc(F)cc1F)c1cccc(Cl)c1", "hERG current change (%, negative = inhibition) at 1uM": 22.6}
{"compound": "COc1ccc(CCC(=O)OCC(=O)N(CC(C)C)c2c(N)n(Cc3ccccc3)c(=O)[nH]c2=O)cc1", "hERG current change (%, negative = inhibition) at 1uM": 8.04}
{"compound": "O=C(CCCn1c(=S)[nH]c2ccc(Br)cc2c1=O)NCC1CCCO1", "note": "(centres unmarked)", "hERG current change (%, negative = inhibition) at 1uM": 23.4}
{"compound": "CCc1nc(SCC(=O)Nc2cc(C)on2)c2c(=O)n(C)c(=O)n(C)c2n1", "hERG current change (%, negative = inhibition) at 1uM": 19.1}
{"compound": "Cc1ccc(NC(=O)N(CCC(=O)O)Cc2ccccc2)cc1", "hERG current change (%, negative = inhibition) at 1uM": 13.6}
{"compound": "Cc1oc2c(C)c3oc(=O)c(CCC(=O)NCCCN4CCOCC4)c(C)c3cc2c1C", "hERG current change (%, negative = inhibition) at 1uM": 12.5}
{"compound": "Cn1c(=O)c(C(=O)COC(=O)c2cc(-c3ccco3)nc3ccccc23)c(N)n(Cc2ccccc2)c1=O", "hERG current change (%, negative = inhibition) at 1uM": -7.17}
{"compound": "COc1cc(C(=O)NC2CCN(Cc3nnnn3Cc3cccs3)CC2)cc(OC)c1OC", "hERG current change (%, negative = inhibition) at 1uM": 12.9}
{"compound": "CC(C)(OC1OC(CO)C(O)C(O)C1O)[C@H]1Oc2ccc3ccc(=O)oc3c2[C@H]1O", "note": "(some centres unmarked)", "hERG current change (%, negative = inhibition) at 1uM": 13.9}
{"compound": "Cn1c(N)c(S(=O)(=O)N2CCN(c3ccccc3Cl)CC2)c(=O)n(C)c1=O", "hERG current change (%, negative = inhibition) at 1uM": 8.92}
{"compound": "Cc1ccc(C(=O)c2c3ccc([N+](=O)[O-])cc3[n+]([O-])n2CCCC(N)=O)cc1", "hERG current change (%, negative = inhibition) at 1uM": -11.4}
{"compound": "CCOC(=O)C(C)(C)Oc1cccc2c1S(=O)(=O)c1ccccc1-2", "hERG current change (%, negative = inhibition) at 1uM": 6.97}
{"compound": "O=C(Nc1ccc(S(=O)(=O)NCc2ccco2)cc1)c1ccc(F)cc1", "hERG current change (%, negative = inhibition) at 1uM": 9.05}
